Test results reported in PubChem BioAssay (Tox21).
Inconclusive results, whose numbers are uncertain, are shown with a selection of clear calls. For part of these data: Where the call is inconclusive, the potency comes from a doubtful curve fit. Active and inactive are the calls of the source. Unless noted, the call rests on the fitted dose curve; in most records, active means well fitted curve in the direction sought with a large enough effect in the repeat runs; inconclusive means weak or mixed curves; inactive means no such curve, though single readings can be large; an effect the other way counts as inactive or inconclusive.

How the values were obtained:
[1] = molecular target: Progesterone receptor (Homo sapiens) (UniProt P06401); assay: qHTS assay to identify small molecule antagonists of the progesterone receptor (PR) signaling pathway (AID 1346795; active means well fitted inhibition curve with a large enough effect in the signal ratio in the repeat runs, not every such curve was filed as active; inconclusive means weak or mixed curves; the % refers to the signal ratio); details: PR-UAS-bla HEK293T, beta-lactamase FRET ratio, 16 h; series mostly up to 92.4 µM
Method in brief: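 After 6 hr plating at 37C in 2% stripped-serum medium, PR-UAS-bla HEK293T cells got compounds, then 1 nM R5020. Sixteen hours later, LiveBLAzer substrate was applied for 2 hr at room temperature and fluorescence was recorded.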

[2] = qHTS assay to identify small molecule antagonists of the progesterone receptor (PR) signaling pathway - cell viability counter screen (AID 1346798); further: nearly all actives have a fitted effect of over 50% in size
Method in brief: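 Viability was determined by ATP-based luminescence (CellTiter-Glo) in PR-UAS-bla HEK293T cells cultured in 2% charcoal-stripped serum and incubated 16 hr with compounds under R5020 stimulation.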

[3] = qHTS assay to identify small molecule agonists of the progesterone receptor (PR) signaling pathway - cell viability counter screen (AID 1346799; calls by dose curve; further: nearly all actives have a fitted effect of over 45% in size)
Method in brief: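 Viability was scored by ATP luminescence (CellTiter-Glo, 30 min, room temperature) in the same wells used for the reporter readout, after 16 hr compound exposure of PR-UAS-bla HEK293T cells.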

[4] = qHTS assay to identify small molecule antagonists of the TGF-beta/Smad signaling pathway - cell viability counter screen (AID 1346824); further: nearly all actives have a fitted effect of over 50% in size
Method in brief: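 SBE-bla HEK 293T cells were plated overnight at 37 C, then given compounds in DMSO plus TGF-beta1 (added as 0.25 ng/mL solution) for 5 hr. After the bla read, CellTiter-Glo was added to the same wells and luminescence read after 30 min at room temperature.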

[5] = qHTS assay to identify small molecule agonists of the TGF-beta/Smad signaling pathway (AID 1346859; active means well fitted activation curve with a large enough effect in the signal ratio in the repeat runs, not every such curve was filed as active; inconclusive means weak or mixed curves; the % refers to the signal ratio); details: SBE-bla HEK293T, TGF-beta/Smad beta-lactamase reporter, 5 h; series mostly up to 76.8 µM
Method in brief: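 Dual-wavelength fluorescence (460/530 nm emission) quantified beta-lactamase expression under the Smad binding element in HEK 293T cells following 5 hr compound treatment at 37 C.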

[6] = Caspase-3/7 induction in HepG2 cells by small molecules, qHTS cell viability counter screen (AID 1346981); further: nearly all actives have a fitted effect of over 30% in size
Method in brief: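 Wild-type HepG2 cells, 2,000/well, settled 5 hr at 37 C, 5% CO2 before compound addition. Viability read by CellTiter-Fluor fluorescence, reagent added after 16 hr compound exposure, then 1 hr at 37C, in the same wells as the caspase read.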

[7] = molecular target: Cytochrome P450 2D6 (Homo sapiens) (UniProt P10635); assay: Cytochrome P450 Family 2 Subfamily D Member 6 (CYP2D6) small molecule antagonists: luciferase reporter qHTS assay (AID 1671196); further: nearly all actives have a fitted effect of over 50% in size
Method in brief: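 Cell-free P450-Glo system: CYP2D6 with proluciferin substrate was pre-incubated with compound for 10 min, then reacted with NADPH regeneration for 1 h at room temperature. Luciferin product was detected after 20 min, and data were reported as relative luminescence units.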

[8] = qHTS assay to identify small molecule antagonists of the TGF-beta/Smad signaling pathway (AID 1346924; active means well fitted inhibition curve with a large enough effect in the signal ratio in the repeat runs, not every such curve was filed as active; inconclusive means weak or mixed curves; the % refers to the signal ratio); details: SBE-bla HEK293T, TGF-beta/Smad reporter, beta-lactamase ratio; series mostly up to 76.8 µM
Method in brief: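 SBE-bla HEK 293T cells were plated overnight, then received compound in DMSO plus TGF-beta1 (added as a 0.25 ng/mL solution) and were incubated 5 h at 37 C. Beta-lactamase reporter activity was read after 2 h at room temperature with LiveBLAzer B/G FRET substrate (ex 405, em 460/530 nm).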

[9] = Human pregnane X receptor (PXR) small molecule agonists, qHTS cell viability counter screen (AID 1346977); further: nearly all actives have a fitted effect of over 50% in size
Method in brief: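 HepG2 cells stably carrying the PXR-Luc reporter are cultured with 5% charcoal-stripped FBS and treated with compounds for 24hr. CellTiter-Fluor is added at 23hr and fluorescence is read after 1hr.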

[10] = Caspase-3/7 induction in CHO-K1 cells by small molecules, qHTS cell viability counter screen (AID 1346979); details: CellTiter-Fluor fluorescence, 17 h; series mostly up to 92.4 µM; further: nearly all actives have a fitted effect of over 35% in size
Method in brief: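 Seeding: 1,500 CHO-K1 cells/well. Rest: 5hr, 37C. Treatment: compounds in DMSO, 16hr. Read: CellTiter-Fluor, 1hr, fluorescence.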

[11] = molecular target: Cytochrome P450 2C9 (Homo sapiens) (UniProt P11712); assay: Cytochrome P450 Family 2 Subfamily C Member 9 (CYP2C9) small molecule antagonists: luciferase reporter qHTS assay (AID 1671198); further: nearly all actives have a fitted effect of over 50% in size
Method in brief: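 CYP2C9 activity was measured with a P450-Glo proluciferin substrate. Enzyme–substrate mix was held with compound for 10 min at room temperature, then NADPH regeneration solution was added for 1 h at 37C. Luciferin product was read as luminescence.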

[12] = molecular target: Thyrotropin-releasing hormone receptor (Homo sapiens) (UniProt P34981); assay: qHTS assay to identify small molecule agonists of the thyrotropin-releasing hormone receptor (TRHR) signaling pathway (AID 1346891; calls by dose curve)
Method in brief: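 Kinetic fluorescence (3 min, 1 s intervals) reported intracellular calcium after compound transfer onto TRHR-Hek293 cells pre-loaded with dye for 2 h at 37 °C.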

[13] = Caspase-3/7 induction in CHO-K1 cells by small molecules, qHTS assay (AID 1346980); further: nearly all actives have a fitted effect of over 15% in size
Method in brief: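 Wild-type cells were seeded at 1,500 per well and settled 5 hr at 37 C, 5% CO2, then exposed to DMSO-dissolved compounds for 17 hr. Caspase-Glo 3/7 reagent was added, and luminescence was read after 30min at room temperature.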

Measured: Potency
Potency means the concentration at half of the fitted maximal effect; tags describe the fitted curve by direction and shape or compound fluorescence and quenching.

Sequence of UniProt P06401 (P06401 whole entry, looked up): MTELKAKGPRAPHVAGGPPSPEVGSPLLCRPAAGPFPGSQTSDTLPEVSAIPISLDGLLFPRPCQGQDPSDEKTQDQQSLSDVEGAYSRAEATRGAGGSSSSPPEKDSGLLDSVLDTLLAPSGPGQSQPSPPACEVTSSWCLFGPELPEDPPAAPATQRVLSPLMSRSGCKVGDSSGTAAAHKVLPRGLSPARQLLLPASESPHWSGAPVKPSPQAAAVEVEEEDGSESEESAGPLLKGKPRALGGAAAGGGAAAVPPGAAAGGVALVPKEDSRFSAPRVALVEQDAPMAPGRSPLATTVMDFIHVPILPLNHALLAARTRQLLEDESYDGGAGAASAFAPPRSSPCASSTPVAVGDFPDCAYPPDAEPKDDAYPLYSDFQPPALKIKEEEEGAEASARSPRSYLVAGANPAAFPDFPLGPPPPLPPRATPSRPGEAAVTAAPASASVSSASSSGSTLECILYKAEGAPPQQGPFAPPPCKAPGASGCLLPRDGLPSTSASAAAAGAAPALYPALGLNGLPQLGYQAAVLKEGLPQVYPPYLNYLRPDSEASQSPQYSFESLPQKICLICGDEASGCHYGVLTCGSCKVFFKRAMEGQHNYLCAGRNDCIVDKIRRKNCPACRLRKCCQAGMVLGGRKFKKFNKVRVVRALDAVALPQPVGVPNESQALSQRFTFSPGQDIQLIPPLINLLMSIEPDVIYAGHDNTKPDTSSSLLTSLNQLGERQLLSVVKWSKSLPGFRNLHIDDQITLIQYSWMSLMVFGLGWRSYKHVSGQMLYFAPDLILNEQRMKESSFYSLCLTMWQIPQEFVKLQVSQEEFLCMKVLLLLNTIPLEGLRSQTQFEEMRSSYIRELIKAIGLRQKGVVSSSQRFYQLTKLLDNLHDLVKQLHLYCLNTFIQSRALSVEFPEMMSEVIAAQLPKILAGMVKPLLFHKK
Sequence of UniProt P10635 (P10635 whole entry, looked up): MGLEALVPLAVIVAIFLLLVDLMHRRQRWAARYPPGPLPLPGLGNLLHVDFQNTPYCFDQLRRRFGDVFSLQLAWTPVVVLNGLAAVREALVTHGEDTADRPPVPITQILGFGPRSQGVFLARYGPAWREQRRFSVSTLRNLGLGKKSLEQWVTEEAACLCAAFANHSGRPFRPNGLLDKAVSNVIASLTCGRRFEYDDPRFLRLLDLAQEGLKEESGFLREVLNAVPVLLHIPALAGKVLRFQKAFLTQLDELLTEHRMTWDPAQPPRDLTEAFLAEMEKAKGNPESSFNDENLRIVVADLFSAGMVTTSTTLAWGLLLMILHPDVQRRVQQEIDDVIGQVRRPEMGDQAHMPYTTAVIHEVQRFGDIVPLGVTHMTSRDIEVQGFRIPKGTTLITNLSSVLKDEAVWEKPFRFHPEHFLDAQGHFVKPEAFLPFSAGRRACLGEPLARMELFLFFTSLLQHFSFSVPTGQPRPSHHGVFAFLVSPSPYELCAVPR
Sequence of UniProt P11712 (P11712 whole entry, looked up): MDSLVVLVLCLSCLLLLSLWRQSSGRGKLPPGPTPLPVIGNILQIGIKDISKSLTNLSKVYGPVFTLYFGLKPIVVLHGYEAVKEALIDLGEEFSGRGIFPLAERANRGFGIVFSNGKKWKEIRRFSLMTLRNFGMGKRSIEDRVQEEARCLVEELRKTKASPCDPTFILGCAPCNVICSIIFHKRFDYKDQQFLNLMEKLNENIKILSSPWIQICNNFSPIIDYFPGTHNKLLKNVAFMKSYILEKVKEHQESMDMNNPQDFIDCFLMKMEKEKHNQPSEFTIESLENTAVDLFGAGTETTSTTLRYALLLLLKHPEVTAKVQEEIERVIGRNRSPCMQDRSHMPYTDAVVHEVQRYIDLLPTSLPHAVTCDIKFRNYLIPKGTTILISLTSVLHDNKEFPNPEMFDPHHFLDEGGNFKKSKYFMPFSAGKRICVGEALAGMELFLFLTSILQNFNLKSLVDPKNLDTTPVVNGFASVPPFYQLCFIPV
Sequence of UniProt P34981 (P34981 whole entry, looked up): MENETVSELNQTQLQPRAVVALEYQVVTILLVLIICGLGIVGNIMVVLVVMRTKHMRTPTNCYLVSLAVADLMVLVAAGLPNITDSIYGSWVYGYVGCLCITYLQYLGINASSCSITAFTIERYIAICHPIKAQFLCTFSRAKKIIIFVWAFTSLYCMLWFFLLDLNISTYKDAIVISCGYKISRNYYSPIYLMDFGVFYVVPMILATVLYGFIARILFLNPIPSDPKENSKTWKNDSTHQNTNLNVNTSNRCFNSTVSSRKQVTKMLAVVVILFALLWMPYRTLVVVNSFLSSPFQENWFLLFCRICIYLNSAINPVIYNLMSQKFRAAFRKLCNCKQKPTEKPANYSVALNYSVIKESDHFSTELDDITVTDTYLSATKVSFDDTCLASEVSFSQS

NNc1nc(-c2ccccc2)cs1
active: [1] 19.9 µM
inconclusive: [2] 12.5 µM [cytotoxic, full curve] | [3] 3.97 µM [cytotoxic, full curve, poor fit] | [5] 10 µM [rising, full curve] | [6] 79.2 µM [cytotoxic, single point] | [7] 65.1 µM [inhibitor, partial curve]
inactive: [4]

CC1=Nc2ccc3ccccc3c2C1(C)C
inconclusive: [1] 24.3 µM [rising, partial curve] | [5] 49 µM | [8] 54.9 µM | [9] 61.1 µM [rising, single point] | [10] 54.5 µM [rising, partial curve] | [6] 61.1 µM [rising, partial curve] | [11] 39.9 µM [inhibitor, partial curve]
active: [2] 12.2 µM | [3] 24.3 µM

Cc1ccc(S(=O)(=O)C(I)I)cc1
active: [13] 12.2 µM | [6] 54.5 µM
inconclusive: [1] 77 µM [rising, single point] | [2] 68.6 µM [cytotoxic, single point] | [3] 77 µM [cytotoxic, partial curve, poor fit] | [4] 54.9 µM [cytotoxic, single point] | [12] 17.4 µM [activator, partial curve, poor fit] | [7] 35.6 µM [inhibitor, partial curve]
